Experimental data as given in patent publication US11178870B2 (priority 2017, dated 2021).

Experiments:
Assay type in all cases: in vivo
Botrytis cinerea = experiment: Test Example B: Gray mold on tomato; conditions: for control value, Test B (gray mold on tomato): Table 7, Test B; for Test B control value: Gray mold on tomato; for Test B control value (gray mold on tomato): class of control value, Table 7
Alternaia brassicicola = experiment: Test Example C: Alternaria sooty spot on cabbage; conditions: for control value, Test C (Alternaria sooty spot on cabbage): Table 7, Test C; for Test C control value: Alternaria sooty spot on cabbage; for Test C control value (Alternaria sooty spot on cabbage): class of control value, Table 7
[1] = tested on: Blumeria graminis f. sp. hordei; experiment: Test Example D: Powdery mildew on barley; conditions: for control value, Test D (powdery mildew on barley): Table 7, Test D; for Test D control value: Powdery mildew on barley; for Test D control value (powdery mildew on barley): class of control value, Table 7
Puccinia recondita = experiment: Test Example E: Brown rust on wheat; conditions: for control value, Test E (brown rust on wheat): Table 7, Test E; for Test E control value: Brown rust on wheat; for Test E control value (brown rust on wheat): class of control value, Table 7
Plasmopara viticola = experiment: Test Example G: Downy mildew on vine; conditions: for control value, Test G (downy mildew on vine): 250 ppm sprayed (2.5 ml/pot) before inoculation, assessed 7 to 10 days after inoculation; for Test G control value: Downy mildew on vine, 250 ppm sprayed, 7 to 10 days after inoculation; for Test G control value / Test G control value (downy mildew on vine): 2.5 ml/pot; for Test G control value (downy mildew on vine): 250 ppm spray, investigated 7 to 10 days after inoculation

Compound	control value, Test B (gray mold on tomato) (Botrytis cinerea)	control value, Test C (Alternaria sooty spot on cabbage) (Alternaia brassicicola)	control value, Test D (powdery mildew on barley) [1]	control value, Test E (brown rust on wheat) (Puccinia recondita)	control value, Test G (downy mildew on vine) (Plasmopara viticola)	Test B control value (gray mold on tomato) (Botrytis cinerea)	Test C control value (Alternaria sooty spot on cabbage) (Alternaia brassicicola)	Test D control value (powdery mildew on barley) [1]	Test E control value (brown rust on wheat) (Puccinia recondita)	Test G control value (downy mildew on vine) (Plasmopara viticola)	also measured
Cc1cnn(-c2ccc(=O)n(CC(F)F)c2-c2ccccc2F)c1 [Compound 305]	L (L shows the control value of 50% or less)	H (H shows the control value more than 50%)	H (H shows the control value more than 50%)	H (H shows the control value more than 50%)	L (L shows the control value of 50% or less)						
CCn1c(-c2ccc(F)cc2F)c(-n2cc(F)cn2)ccc1=O [Compound 250]	H (H shows the control value more than 50%)	H (H shows the control value more than 50%)	H (H shows the control value more than 50%)	H (H shows the control value more than 50%)	L (L shows the control value of 50% or less)						
CCn1c(-c2c(F)cc(F)cc2F)c(-n2nc(C)c(Br)c2C)cc(Br)c1=O [Compound 117]											Test B control value (Botrytis cinerea): L (L shows the control value of 50% or less); Test C control value (Alternaia brassicicola): H (H shows the control value more than 50%); Test D control value [1]: L (L shows the control value of 50% or less); Test E control value (Puccinia recondita): L (L shows the control value of 50% or less); Test G control value (Plasmopara viticola): L (L shows the control value of 50% or less)
CCn1c(-c2ccccc2F)c(-n2cc(F)cn2)cc(Cl)c1=O [Compound 383]						H (H shows the control value more than 50%)	H (H shows the control value more than 50%)	H (H shows the control value more than 50%)	H (H shows the control value more than 50%)	L (L shows the control value of 50% or less)	
CCn1c(-c2ccc(F)cc2Cl)c(-c2ccsc2Cl)cc(Cl)c1=O [Compound 460]						H (H shows the control value more than 50%)	H (H shows the control value more than 50%)	H (H shows the control value more than 50%)	H (H shows the control value more than 50%)	H (H shows the control value more than 50%)	
CCn1c(-c2ccccc2Br)c(-n2ncc(C)c2Cl)cc(Br)c1=O [Compound 271]	H (H shows the control value more than 50%)	H (H shows the control value more than 50%)	H (H shows the control value more than 50%)	H (H shows the control value more than 50%)	H (H shows the control value more than 50%)						
CCn1c(-c2ccccc2C#N)c(-n2ncc(C)c2Cl)cc(Br)c1=O [Compound 472]						H (H shows the control value more than 50%)	H (H shows the control value more than 50%)	L (L shows the control value of 50% or less)	H (H shows the control value more than 50%)	H (H shows the control value more than 50%)	
CCn1c(-c2c(F)cccc2F)c(-c2cnc(N)o2)cc(Cl)c1=O [Compound 135]											Test B control value (Botrytis cinerea): L (L shows the control value of 50% or less); Test C control value (Alternaia brassicicola): L (L shows the control value of 50% or less); Test D control value [1]: L (L shows the control value of 50% or less); Test E control value (Puccinia recondita): L (L shows the control value of 50% or less); Test G control value (Plasmopara viticola): H (H shows the control value more than 50%)
CCn1c(-c2ccc(OC)cc2F)c(-n2cc(F)cn2)ccc1=O [Compound 300]	H (H shows the control value more than 50%)	H (H shows the control value more than 50%)	H (H shows the control value more than 50%)	H (H shows the control value more than 50%)	L (L shows the control value of 50% or less)						
Cc1cnn(-c2cc(Cl)c(=O)n(C)c2-c2ccc(F)cc2F)c1Cl [Compound 410]						H (H shows the control value more than 50%)	H (H shows the control value more than 50%)	H (H shows the control value more than 50%)	H (H shows the control value more than 50%)	H (H shows the control value more than 50%)	
Cc1cnn(-c2cc(Br)c(=O)n(C)c2-c2ccccc2F)c1 [Compound 489]						L (L shows the control value of 50% or less)	H (H shows the control value more than 50%)	L (L shows the control value of 50% or less)	H (H shows the control value more than 50%)	L (L shows the control value of 50% or less)	
O=c1ccc(-n2cc(F)cn2)c(-c2ccc(F)cc2F)n1CC(F)F [Compound 284]	H (H shows the control value more than 50%)	H (H shows the control value more than 50%)	H (H shows the control value more than 50%)	H (H shows the control value more than 50%)	L (L shows the control value of 50% or less)						
CCn1c(-c2c(F)cc(F)cc2F)c(-n2nc(C)cc2C)ccc1=O [Compound 93]											Test B control value (Botrytis cinerea): H (H shows the control value more than 50%); Test C control value (Alternaia brassicicola): H (H shows the control value more than 50%); Test D control value [1]: H (H shows the control value more than 50%); Test E control value (Puccinia recondita): L (L shows the control value of 50% or less); Test G control value (Plasmopara viticola): L (L shows the control value of 50% or less)
CN(C)n1c(-c2c(F)cccc2F)c(-c2ccsc2Cl)cc(Br)c1=O [Compound 455]						L (L shows the control value of 50% or less)	H (H shows the control value more than 50%)	L (L shows the control value of 50% or less)	L (L shows the control value of 50% or less)	L (L shows the control value of 50% or less)	
CCn1c(-c2c(F)cc(OC)cc2F)c(-c2ccnn2C)cc(Cl)c1=O [Compound 28]											Test B control value (Botrytis cinerea): H (H shows the control value more than 50%); Test C control value (Alternaia brassicicola): H (H shows the control value more than 50%); Test D control value [1]: H (H shows the control value more than 50%); Test E control value (Puccinia recondita): H (H shows the control value more than 50%); Test G control value (Plasmopara viticola): L (L shows the control value of 50% or less)
